Measurements from the RNAGym collection of RNA variant scans (doi:10.7554/elife.90254).
The source gives no read counts; variants with many changes may rest on few reads.

B1: LINE1-full (parent)
chain: UACGUAGGUGGUUUUCCCCUGAUAGUGCUAAGGGGGCCUGGAAGUUUGGACUGGGCAGAGCUCAACACAGCGUGGCAAAGUGGCUGUGGCUAGACUGCCUCUCUGGAUUCCUCGUCACUCAGCAGGGCAUCUCUGAGAGAAAUGCC

Variants of: B1
Test: self-cleavage, relative activity (ratio to wild type); higher = more cleavage; in vitro, sequencing; the parent is a self-cleaving ribozyme

Variant | self-cleavage
UACGUAGGUGGUUUUCCCCUGAUAAUGCUAAGGGGGCCUGGAAGUUUGGACUGGGCAGAGCUCAGCACAGCGUGGCAAAGUGGCUGUGGCUAGACUGCCUCCCUGAAUUCCUCGUCACUCAGCAGGGCAUCUCUGAGAGAAAUGCC | 0.04
UACGUAGGUGGUUUUCCCCUGAUAAUGCUAAGGGGGCCUGGAAGUUUGGACUGGGCAGAGCUCAACACAGCGUGGCAAAGUGGCUGUGGCUAGACUGCCUCUCUGGAUUCCUCGUCUCUCAGCAGGGCAUCUCUGAGUGAAAUGCC | 0.73
UACGUAGGUGGUUUUCCCCUGAUAAUGCUAAGGGGGCCUGGAAGUUUGGACUGGGCAGAACUCAACACAGCGUGGCGAAGUGGCUGUGGCUAGACUGCCUCCCUGGAUUCCUCGUCACUCAGCAGGGCAUCUCUGAGAGAAAUGCC | 0.04
UACGUAGGUGGUUUUCCCCUGAUAAAGCUAAGGGGGCCUGGAAGUUUGGACUGGGCAGAGCUCAGCACAGCGUGGCAAAGUGGCUGUGGCUAGACUGCCUCUCUGGAUUCCUCGUCACUCAGCAGGGCAUCUCUGAGAGAAAUGCC | 0.06
UACGUAGGUGGUUUUCCCCUGAUAACGCUAAGGGGGCCUGGAAGUUCGGACUGGGCAGAGCUCAACACAGCGUGGCAGAGUGGCUGUGGCUAGACUGCCUCUCUGGAUUCCUCGUCACUCAGCAGGGCAUCUCUGAGAGAAAUGCC | 0.9
UACGUAGGUGGUUUUCCCCUGAUAAGGCUAAGGGGGCCUGGAAGUUUGGACUGGGCAGAGCUCAACACAGCGUGGCAAAGUGGCUGUGGCUAGACUGCCUCUCUGGAUUCCUCGUCACUCAGCCGGGCAUCUCUGAGAGAAAUGCC | 0.98
UACGUAGGUGGUUUUCCCCUGAUAAUGCUAAGGGGGCCAGGAAGUCUGGACUGGGCAGAGCUCAACACAGCGUGGCAAAGUGGCUGUGGCUAGACUGCCUCUCUGGAUUCCUCGUCACUCAGUAGGGCAUCUCUGAGAGAAAUGCC | 2.21
UACGUAGGUGGUUUUCCCCUGAUAAUGCUAAGGGGGCCAGGAAGUUUGGACUGGGCAGAGCUCAACACAGCGUGGCAAAGUGGCUGUGGCUAGACUGCCUCUCUGGAUUCCUCGUCACUCAGCAGGGCAUCUCCGAGAGAGAUGCC | 0.47
UACGUAGGUGGUUUUCCCCUGAUAAUGCUAAGGGGGCCCGGAAGUUUGGACUGGGCAGAGCCCAACACAGCGUGGCAAAGUGGCUGUGGCUAGACUGCCUCUCUGGAUACCUCGUCGCUCAGCAGGGCAUCUCUGAGAGAAAUGCC | 0
UACGUAGGUGGUUUUCCCCUGAUAAUGCUAAGGGGGCCUGGAAGUUCGGACUGGGCGGAGCUCAACACAGCGUGGCAAAGUGGCUGUGGCUAGACUGCCUCUCUGGAUUCCUCGUCACUCAGCAGGGCAUCUCUGGGAGAAAUGCC | 0.38
UACGUAGGUGGUUUUCCCCUGAUAAUGCUAAGGGGGCCUGGAAGUUUGGACCGGGCAGAGCUCAACACAGCGUGGCAAAGUGGCUGUGGCUAGACUGCCUCCCUGGAUUCCUCGUCACUCAGCAGGGCGUCUCUGAGAGAAAUGCC | 1.79
UACGUAGGUGGUUUUCCCCUGAUAAUGCUAAGGGGGCCUGGAAGUUUGGACUGGGCAGAGCUCAACACAGCGUGGCAAAGCAGCUGUGGCUAGACUGCCUCUCUGGAUUCCUCGUCACUCAGCCGGGCAUCUCUGAGAGAAAUGCC | 2.38
UACGUAGGUGGUUUUCCCCUGAUAAUGCUAAGGGGGCCUGGAAGUUUGGACUGGGCAGAGCUCAACACAGCGUGGCAAAGUGGCAGUGGCUAGACUGCCUCUCUUGAUUCCUCGACACUCAGCAGGGCAUCUCUGAGGGAAAUGCC | 0.06
UACGUAGGUGGUUUUCCCCUGAUAAUGCUAAGGGGGCCUGGAAGUUUGGACUGGGCAGAGCUCAACACAGCGUGGCAAAGUGGCCGUGGCUAGACUGCCUCUCUGGAUUCCUCGUCACUCAGCAGGGCAUCUCUGAGUGAAAUGCC | 0.35
UACGUAGGUGGUUUUCCCCUGAUAAUGCUAAGGGGGCCUGGAAGUUUGGACUGGGCAGAGCUCAACACAGCGUGGCAAAGUGGCUGUGGCUAGACCGCCUCUCUGGAUUCCUCGUCACUCAGCAGAGCAUCUCUGAGAGAAAUGCC | 0.14
UACGUAGGUGGUUUUCCCCUGAUACUGCUAAGGGGGCCUGGAAGUUUGGACUGGGCAGAGCUCAACACAGCGUGGCAAAGUGGCUGUGGCUAGACUGCCUCUCUGGAUUCCUCGUCACUCAGCAGGGCAUCUUAGAGAGAAAUGCC | 0.99
UACGUAGGUGGUUUUCCCCUGAUACUGCUAAGGUGGCCUGGAAGUUUGGACUGGGCUGAGCUCAACACAGCGUGGCAAAGUGGCUGUGGCUAGACUGCCUCUCUGGAUUCCUCGUCACUCAGCAGGGCAUCUCUGAGAGAAAUGCC | 0.12
UACGUAGGUGGUUUUCCCCUGAUACUGCUAAGGGGGCCUGGAAGCUUGGACUGGGCGGAGCUCAACACAGCGUGGCAAAGUGGCUGUGGCUAGACUGCCUCUCUGGAUUCCUCGUCACUCAGCAGGGCAUCUCUGAGAGAAAUGCC | 0.97
UACGUAGGUGGUUUUCCCCUGAUACUGCUAAGGGGGCCUGGAAGUUUGGACUGGGCAGAGCUCAACACAGCGUGGCAAAGUGGCCGUGGCUAGACUGCCUCUCUGGAUUCCUCGUCACUCAGCAGGGCAUCUCUGAGGGAAAUGCC | 0.39
UACGUAGGUGGUUUUCCCCUGAUAUUGCUGAGGGGGCCUGGAAGUUUGGACUGGGCAGAGCUCAACACAGCGUGGCAAAGUGGCUGUGGCUAGACUGCCUCUCUGGUUUCCUCGUCACUCAGCAGGGCAUCUCUGAGAGAAAUGCC | 1.14

Variant | self-cleavage
UACGUAGGUGGUUUUCCCCUGAUAUUGCUAAGGGGGCCUGGGAGUUUGGACUGGGCAGAGCUCAACACAGCGUGGCAAAGUGGCUGUGGCUAGACUGCCUCUCUGGAUUCCUCGUCACUCCGCAGGGCAUCUCUGAGAGAAAUGCC | 1.28
UACGUAGGUGGUUUUCCCCUGAUAUUGCUAAGGGGGCCUGGAGGUAUGGACUGGGCAGAGCUCAACACAGCGUGGCAAAGUGGCAGUGGCUAGACUGCCUCUCUGGAUUCCUCGUCACUCAGCAGGGCAUCUCUGAGAGAAAUGCC | 0.06
UACGUAGGUGGUUUUCCCCUGAUAUUGCUAAGGGGGCCUGGAAGUUUGGGCUGGGCAGAGCUCAACACUGCGUGGCAAAGUGGCUGUGGCUAGACUGCCUCUCCGGAUUCCUCGUCACUCAGCAGGGCAUCUCUGAGAGAAAUGCC | 0.2
UACGUAGGUGGUUUUCCCCUGAUAUUGCUAAGGGGGCCUGGAAGUUUGGACUGGGCGGAGCUCAACGCAGCGUGGCAAAGUGGCAGUGGCUAGACUGCCUCUCUGGAUUCCUCGUCACUCAGCAGGGCAUCUCUGAGAGAAAUGCC | 0
UACGUAGGUGGUUUUCCCCUGAUAUUGCUAAGGGGGCCUGGAAGUUUGGACUGGGCAGGGCUCAACACAGCGUGGCAAAGUGGCUGUGGCUAGUCUGCCUCUCUGGAUUCCUCGUCACUCAGCAGGGCAUCUCUGAGAGAAAUGCC | 0.02
UACGUAGGUGGUUUUCCCCUGAUAUUGCUAAGGGGGCCUGGAAGUUUGGACUGGGCAGAGCUCAACACAGCGUGGCAAAGUAGCUGUGGCUAGACUGCCUCCCUGGAUUCCUCGUCACUCAGCAGGGCAUCUCUGGGAGAAAUGCC | 1.18
UACGUAGGUGGUUUUCCCCUGAUAGAGCUAGGGGGGCCUGGAAGUUUGGACUGGGCUGAGCUCAACACAGCGUGGCAAGGUGGCUGUGGCUAGACUGCCUCUCUGGAUUCCUCGUCACUCAGCAGGGCAUCUCUGAGAGAAAUGCC | 0.2
UACGUAGGUGGUUUUCCCCUGAUAGAGCUAAGGGGGCCUGGGAGUUUGGACUGGGCAGAGCUCAACACAGCGUGGCAAAGUGGCUGUGGCUAGACUGCCUCUCUGGAUUCCUCGUCACUCAGCAGGGCAUCUCUGAGAGCAAUGCC | 0.9
UACGUAGGUGGUUUUCCCCUGAUAGAGCUAAGGGGGCCUGGUAGUUUGGACUGGGCAGAGCUCAACACAGCGUGGCGAAGUGGCUGUGGCUAGACUGCCUCUCUGGAUUCCUCGUCACUCAGCAGGGCAUCUCUGAGAGAAAUGCC | 0.76
UACGUAGGUGGUUUUCCCCUGAUAGAGCUAAGGGGGCCUGGAUGUUUGGACUGGGCAGAGCUCAACACAGCGUGGCAAAGUGGCUGUGGCUAGACUGCCUCUCUGGGUUCCUCGUCACUCAGCAGGGCAUCUCUGAGAGAAGUGCC | 1.13
UACGUAGGUGGUUUUCCCCUGAUAGAGCUAAGGGGGCCUGGAAGUUUGGGCUGGGUAGAGCUCAACACAGCGUGGCAAAGUGGCUGAGGCUAGACUGCCUCUCUGGAUUCCUCGUCACUCAGCAGGGCAUCUCUGAGAGAAAUGCC | 0.04
UACGUAGGUGGUUUUCCCCUGAUAGAGCUAAGGGGGCCUGGAAGUUUGGGCUGGGCAGAGCUCAACACAGCGUGGCAAAGUGGCUGUGGCUAGAUUGCCUCUCUGGAUUCCUCGUCACUCAGCAGGUCAUCUCUGAGAGAAAUGCC | 0.09
UACGUAGGUGGUUUUCCCCUGAUAGAGCUAAGGGGGCCUGGAAGUUUGGGCAGGGCAGAGCUCAAUACAGCGUGGCAAAGUGGCUGUGGCUAGACUGCCUCUCUGGAUUCCUCGUCACUCUGCAGGGCAUCUCUAAGAGAAAUGCC | 0.07
UACGUAGGUGGUUUUCCCCUGAUAGAGCUAAGGGGGCCUGGAAGUUUGGUCUGGGCGGAGCUCAACACAGCGUGGCAAAGUGGCUGUGGCUAGACUGCCUCUCUGGAUUCCUCGUCACUCAGCAGGGCAUCUCUGAGAGAAAUGCC | 0.46
UACGUAGGUGGUUUUCCCCUGAUAGAGCUAAGGGGGCCUGGAAGUUUGGUCUGGGCAAAGCUCAACACAGCGUGGCAAAGUGGCUGUGGCUAGACUGCCUCUCUGGAUUCCUCGUCACUCAGCAGGGCAUCUCUGAGAGUAAUGCC | 0.03
UACGUAGGUGGUUUUCCCCUGAUAGAGCUAAGGGGGCCUGGAAGUUUGGACUGGGCGGAGCUCAACACAGCGUGGCAUAGUGGCUGUGGCUAGACUGCCUCUCUGGAUUCCUCGUCACUCAGCAGGGCAUCUCUGAGAGAAAUGCC | 0.77
UACGUAGGUGGUUUUCCCCUGAUAGAGCUAAGGGGGCCUGGAAGUUUGGACUGGGCGGAGCUCAACACAGCAUGGCAAAGUGGCUGUGGCUAGACUGCCUCUCUGGAUUCCUCGUCACUCAGCAGGGCGUCUCUGAGAGAAAUGCC | 0.68
UACGUAGGUGGUUUUCCCCUGAUAGAGCUAAGGGGGCCUGGAAGUUUGGACUGGGCGGAGCUCAACACAGCGUGGCAAAGUGGCUGUGGCUAGACUGCCUCUCUGGAUUCCUCGCCACUCAGCAGGGCAUCUCUGAGAGAAAUGCC | 0.98
UACGUAGGUGGUUUUCCCCUGAUAGAGCUAAGGGGGCCUGGAAGUUUGGACUGGGCUGAGCUCGACACAGCGUGGCAAAGUGGCUGUGGCUAGACUGCCUCUCUGGAUUCCUCGUCACUCAGCAGGGCAUCUCUGAGAGAAAUGCC | 0.53
